T1: UNK ZnF1-3 (human, UniProt Q9C0B0 31-174)
T1 sequence: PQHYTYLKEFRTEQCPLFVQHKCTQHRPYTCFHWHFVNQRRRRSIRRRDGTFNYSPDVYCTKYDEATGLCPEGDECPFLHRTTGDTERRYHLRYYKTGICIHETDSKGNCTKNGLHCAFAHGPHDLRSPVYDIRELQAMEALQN

B1: chr1:95363388:95363389:-_ENSG00000117519_ENST00000538964|hu_hu|FALSE|FALSE (ssRNA)
RNA: GGGAGUUCUACAGUCCGACGAUCUCUGGGGUAGUCAUCCUGGUACUCGCCAUGAUACUCAUCAGGGUAUUCUGCCUGAUAAUCACUAUCACUGAUUUCCGAACCAUUUGUUCCUGUUCCUUGGCUUCCGUUGUGAAUGACAGGCAACAGAGGAUUGAGCAUCA
B2: chr14:31813938:31813939:-_ENSMUSG00000021917_ENSMUST00000162092|perfect_dup|FALSE|FALSE (ssRNA)
RNA: GGGAGUUCUACAGUCCGACGAUCAACUAUGUAGACAGUCCACCCAAACUGUUCAGCCACGUACCCGUAGAUAAACCCAACUAUUGCAGAAAAAAGAAUGAUCCCCUGAAACAUCUGUUCAGCUAGUUUCUGCCCCUUGUAAUCCAACAGAGGAUUGAGCAUCA
B3: chr9:64574521:64574522:-_ENSMUSG00000004771_ENSMUST00000172298|mus_hu|motif|central (ssRNA)
RNA: GGGAGUUCUACAGUCCGACGAUCACUGCCCUGAGAUGACGUAGAUCACUCUUAUUGCCCACAAGCAUGAUAACAAUGUUACGGUCAGCAUGAUCUCUCAGUUCUUUCAGCCAUCGCUCUACAUUUUCAUAUGUGAGAUGUUUACAACAGAGGAUUGAGCAUCA
B4: chr3:123074248:123074249:-_ENSMUSG00000028114_ENSMUST00000029759|mus_mus|motif|central (ssRNA)
RNA: GGGAGUUCUACAGUCCGACGAUCGAUAGUGCUAUCUCUCCCAAAGAGAUGAAGGCGUCUUCUACCAAGACAAAAAUGUUCGGUUAUAUGAAAAAUUUCUACUGGUUUUUCUAUAUUGCCAAUCUCAGGUUCUUCUGUGAUAAUCAACAGAGGAUUGAGCAUCA
B5: chr1:220276048:220276049:+_ENSG00000067704_ENST00000302637|hu_hu|hu_hu_hu_mus_True|98_98 (ssRNA)
RNA: GGGAGUUCUACAGUCCGACGAUCGCAAAUUGCCUGGUUGGCUGGAAUUGUCCAAGGCUGGGUGGUCCAAACUAAAACGCUAACAGGGGAUGAGGCAUCUGUAAGAGACUCCAACUUCGGAGGAGGUCUCAGGAGGGGGAAUCUCAACAGAGGAUUGAGCAUCA
B6: chr13:48835921:48835922:+_ENSG00000136156_ENST00000378565|hu_mus|motif|central (ssRNA)
RNA: GGGAGUUCUACAGUCCGACGAUCAUAUGGGCUAUACAAAUUAGUAACAUGAGUUGCUUCUUAAAUUCCAAACAUUUGUCGGAAAUCUUAUUACAGCAGAGGCCUAGGAUAUUAAAACAUCAAGGCUGAAAUCCUCUAAAGUAGCAACAGAGGAUUGAGCAUCA

The list shows a part of the results.

The target in this experiment is T1, UNK ZnF1-3. As to the kind of experiment: nsRBNS (natural sequence RNA bind-n-seq); RBNS binding buffer (assumed for nsRBNS): 25 mM Tris pH 7.5, 150 mM KCl, 3 mM MgCl2, 0.01% Triton X-100, 500 ug/ml BSA, 20 U/ml SUPERase-In, 4 C; UNK is unkempt and MSI1 is Musashi-1; names of the RNAs are library labels; protein concentration not given here; high values mean tight binding.
B1: the binding signal stood at 0.483 enrichment R. Next, B2: 1.36 enrichment R; B3: 0.702 enrichment R.

For B4, the binding signal was found to be 0.883 enrichment R. Next, B5: 2.98 enrichment R; B6: 1.03 enrichment R.

The record behind these values is PMC12136788.
